# According to the antibiotic and cytotoxicity screens of Wong et al. (2023):
# This is one part of the list.
# Assays:
# [1] = tested on: HSkMC (human skeletal muscle cells); assay: cytotoxicity call (relative viability < 0.9); conditions: 10 µM
# [2] = tested on: HepG2; assay: cytotoxicity call (relative viability < 0.9); conditions: 10 µM
# [3] = tested on: S. aureus RN4220; assay: growth inhibition call (relative growth <= 0.2); conditions: 50 µM
Structure (SMILES),cytotoxicity call [1],cytotoxicity call [2],growth inhibition call [3]
Cc1c2oc3c(C)ccc(C(=O)N[C@@H]4C(=O)N[C@@H](C(C)C)C(=O)N5CCC[C@H]5C(=O)N(C)CC(=O)N(C)[C@@H](C(C)C)C(=O)O[C@@H]4C)c3nc-2c(C(=O)N[C@@H]2C(=O)N[C@@H](C(C)C)C(=O)N3CCC[C@H]3C(=O)N(C)CC(=O)N(C)[C@@H](C(C)C)C(=O)O[C@@H]2C)c(N)c1=O,inactive,active,active
COc1ccc(NC(=O)N(C)C[C@@H]2Oc3cc(C#CCN(C)C)ccc3S(=O)(=O)N([C@@H](C)CO)C[C@@H]2C)cc1,inactive,inactive,inactive
CN(C)CCCNC(=O)C[C@H]1C=C[C@H](NS(=O)(=O)c2ccccc2)[C@@H](CO)O1,inactive,inactive,inactive
C[C@H](CO)N1C[C@H](C)[C@@H](CN(C)Cc2ccccc2)Oc2ccc(NS(=O)(=O)c3cn(C)cn3)cc2C1=O,inactive,inactive,inactive
COc1cccc(S(=O)(=O)Nc2ccc3c(c2)[C@H]2C[C@@H](CC(=O)N4CCCCC4)O[C@@H](CO)[C@H]2O3)c1,inactive,inactive,inactive
CC(=O)NCCc1cnc[nH]1,inactive,inactive,inactive
C[C@H]1CCCCO[C@H](CN(C)C(=O)Nc2ccc(F)cc2)[C@@H](C)CN([C@@H](C)CO)C(=O)c2cc(NS(=O)(=O)c3ccc(Cl)cc3)ccc2O1,inactive,active,inactive
CC(C)NC(=O)N(C)C[C@@H]1Oc2ccc(NS(=O)(=O)c3cn(C)cn3)cc2C(=O)N([C@H](C)CO)C[C@@H]1C,inactive,inactive,inactive
